Results: the supplement of paper PMC6531468
The list shows a part of the results. Values come from read counts of a selection and are noisy. Scores sum up all selected molecules that hold the word; the word was not tested alone.

Legend:
Assay in all cases: 6-mer SELEX enrichment z-score vs GST control; IMP3 is the RNA-binding protein IGF2BP3; higher = more enriched by binding
IMP3 KH1-4 = settings: construct: KH1-4 (164-579); SELEX round: R4
Description: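 SELEX-seq with GST-tagged IMP3 KH1-4 (Pro164-Lys579) and an N40 RNA pool, round 4. 6-mer z-score of sequence-tag enrichment normalised to the corresponding GST SELEX round; RNA k-mers written as DNA (T for U).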

IMP3 RRM1-2 = settings: construct: RRM1-2 (1-163); SELEX round: R2
Description: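 SELEX-seq with GST-tagged IMP3 RRM1-2 (Met1-Asn163) and an N40 RNA pool, round 2. 6-mer enrichment z-score normalised to GST SELEX. RNA written as DNA (T = U).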

IMP3 full-length = IMP3 full-length (UniProt O00425); settings: construct: FL IMP3 (1-579); SELEX round: R4
Description: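 SELEX-seq with GST-tagged full-length IMP3 and an N40 RNA pool, round 4. Each 6-mer is scored as an enrichment z-score of sequence tags containing it, normalised to the matching GST SELEX round. RNA written as DNA (T = U).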

IMP3 KH1-2 = settings: construct: KH1-2 (164-376); SELEX round: R4
Description: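 SELEX-seq with GST-tagged IMP3 KH1-2 (Pro164-Phe376) and an N40 RNA pool, round 4 (stringent 300/600 mM KCl washes). 6-mer z-score of sequence-tag enrichment normalised to the corresponding GST SELEX round; RNA k-mers written as DNA (T for U).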

IMP3 KH3-4 = settings: construct: KH3-4 (377-579); SELEX round: R4
Description: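 SELEX-seq with GST-tagged IMP3 KH3-4 (Pro377-Lys579) and an N40 RNA pool, round 4. 6-mer z-score of sequence-tag enrichment normalised to the corresponding GST SELEX round; RNA k-mers written as DNA (T for U).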

Sequence of IMP3 KH1-4 (chain, as listed by the source): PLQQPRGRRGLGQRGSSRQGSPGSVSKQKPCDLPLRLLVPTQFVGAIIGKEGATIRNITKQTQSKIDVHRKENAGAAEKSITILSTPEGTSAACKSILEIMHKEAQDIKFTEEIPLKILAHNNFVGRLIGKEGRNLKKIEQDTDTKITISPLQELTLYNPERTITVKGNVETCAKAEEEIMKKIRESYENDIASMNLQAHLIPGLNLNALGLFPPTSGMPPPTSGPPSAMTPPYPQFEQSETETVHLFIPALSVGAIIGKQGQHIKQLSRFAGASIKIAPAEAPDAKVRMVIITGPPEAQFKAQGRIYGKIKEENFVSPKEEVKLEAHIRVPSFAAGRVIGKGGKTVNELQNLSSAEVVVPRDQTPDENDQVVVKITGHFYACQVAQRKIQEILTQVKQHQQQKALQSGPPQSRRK
Sequence of IMP3 KH1-2 (chain, as listed by the source): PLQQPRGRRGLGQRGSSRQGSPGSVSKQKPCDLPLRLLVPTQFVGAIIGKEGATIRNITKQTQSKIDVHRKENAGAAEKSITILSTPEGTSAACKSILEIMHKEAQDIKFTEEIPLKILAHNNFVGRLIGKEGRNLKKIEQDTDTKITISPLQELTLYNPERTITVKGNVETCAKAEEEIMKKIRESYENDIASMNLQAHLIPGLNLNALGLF
Sequence of IMP3 RRM1-2 (chain, as listed by the source): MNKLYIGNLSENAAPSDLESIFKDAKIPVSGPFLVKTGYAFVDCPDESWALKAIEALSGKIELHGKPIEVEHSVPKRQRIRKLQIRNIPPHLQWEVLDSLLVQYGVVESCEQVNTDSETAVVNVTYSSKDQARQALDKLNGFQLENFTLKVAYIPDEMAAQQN
Sequence of UniProt O00425 (O00425 whole entry): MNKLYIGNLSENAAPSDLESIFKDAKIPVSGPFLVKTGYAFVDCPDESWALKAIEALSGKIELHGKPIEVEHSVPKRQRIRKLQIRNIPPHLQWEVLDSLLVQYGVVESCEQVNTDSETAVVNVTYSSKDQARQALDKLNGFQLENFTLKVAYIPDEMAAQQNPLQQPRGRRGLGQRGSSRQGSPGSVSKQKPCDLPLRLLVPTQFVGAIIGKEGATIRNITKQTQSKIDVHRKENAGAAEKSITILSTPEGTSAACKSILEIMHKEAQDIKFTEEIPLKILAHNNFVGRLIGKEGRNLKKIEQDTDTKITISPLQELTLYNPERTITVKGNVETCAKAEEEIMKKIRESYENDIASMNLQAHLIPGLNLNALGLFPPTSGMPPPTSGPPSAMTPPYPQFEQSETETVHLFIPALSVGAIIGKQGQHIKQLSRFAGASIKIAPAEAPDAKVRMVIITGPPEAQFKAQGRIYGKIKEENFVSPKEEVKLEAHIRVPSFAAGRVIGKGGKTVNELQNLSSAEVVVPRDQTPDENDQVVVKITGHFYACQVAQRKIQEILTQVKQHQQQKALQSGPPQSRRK
Sequence of IMP3 KH3-4 (chain, as listed by the source): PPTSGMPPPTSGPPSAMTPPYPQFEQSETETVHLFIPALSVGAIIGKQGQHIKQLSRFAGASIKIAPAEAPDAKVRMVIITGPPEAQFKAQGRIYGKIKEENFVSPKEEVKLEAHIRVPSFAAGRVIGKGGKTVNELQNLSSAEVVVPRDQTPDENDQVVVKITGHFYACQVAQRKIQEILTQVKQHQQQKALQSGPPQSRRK

ACGCTC
6-mer SELEX enrichment z-score (IMP3 KH1-4): -0.366 | 6-mer SELEX enrichment z-score (IMP3 RRM1-2): 0.1 | 6-mer SELEX enrichment z-score (IMP3 full-length): -0.008 | 6-mer SELEX enrichment z-score (IMP3 KH1-2): -0.258 | 6-mer SELEX enrichment z-score (IMP3 KH3-4): -0.602

TGTGGT
6-mer SELEX enrichment z-score (IMP3 KH1-4): -0.041 | 6-mer SELEX enrichment z-score (IMP3 RRM1-2): 0.467 | 6-mer SELEX enrichment z-score (IMP3 full-length): -0.069 | 6-mer SELEX enrichment z-score (IMP3 KH1-2): -0.036 | 6-mer SELEX enrichment z-score (IMP3 KH3-4): 0.14

TTACTC
6-mer SELEX enrichment z-score (IMP3 KH1-4): -0.294 | 6-mer SELEX enrichment z-score (IMP3 RRM1-2): 0.288 | 6-mer SELEX enrichment z-score (IMP3 full-length): -0.326 | 6-mer SELEX enrichment z-score (IMP3 KH1-2): -0.198 | 6-mer SELEX enrichment z-score (IMP3 KH3-4): -0.335

AGCAGT
6-mer SELEX enrichment z-score (IMP3 KH1-4): 0.215 | 6-mer SELEX enrichment z-score (IMP3 RRM1-2): 0.338 | 6-mer SELEX enrichment z-score (IMP3 full-length): 0.543 | 6-mer SELEX enrichment z-score (IMP3 KH1-2): 0.051 | 6-mer SELEX enrichment z-score (IMP3 KH3-4): 0.044

TTCCCG
6-mer SELEX enrichment z-score (IMP3 KH1-4): -0.544 | 6-mer SELEX enrichment z-score (IMP3 RRM1-2): -0.186 | 6-mer SELEX enrichment z-score (IMP3 full-length): -0.647 | 6-mer SELEX enrichment z-score (IMP3 KH1-2): -0.517 | 6-mer SELEX enrichment z-score (IMP3 KH3-4): -0.826

GGAGCG
6-mer SELEX enrichment z-score (IMP3 KH1-4): -2.25 | 6-mer SELEX enrichment z-score (IMP3 RRM1-2): -0.264 | 6-mer SELEX enrichment z-score (IMP3 full-length): -0.686 | 6-mer SELEX enrichment z-score (IMP3 KH1-2): -1.91 | 6-mer SELEX enrichment z-score (IMP3 KH3-4): -1.79

CACTGA
6-mer SELEX enrichment z-score (IMP3 KH1-4): 0.58 | 6-mer SELEX enrichment z-score (IMP3 RRM1-2): -0.039 | 6-mer SELEX enrichment z-score (IMP3 full-length): 0.29 | 6-mer SELEX enrichment z-score (IMP3 KH1-2): 0.411 | 6-mer SELEX enrichment z-score (IMP3 KH3-4): 0.103

GGTGCA
6-mer SELEX enrichment z-score (IMP3 KH1-4): 0.22 | 6-mer SELEX enrichment z-score (IMP3 RRM1-2): 0.232 | 6-mer SELEX enrichment z-score (IMP3 full-length): 0.344 | 6-mer SELEX enrichment z-score (IMP3 KH1-2): 0.163 | 6-mer SELEX enrichment z-score (IMP3 KH3-4): 0.194

TCCGTG
6-mer SELEX enrichment z-score (IMP3 KH1-4): -0.062 | 6-mer SELEX enrichment z-score (IMP3 RRM1-2): -0.04 | 6-mer SELEX enrichment z-score (IMP3 full-length): -0.037 | 6-mer SELEX enrichment z-score (IMP3 KH1-2): -0.105 | 6-mer SELEX enrichment z-score (IMP3 KH3-4): -0.295

TTGGGC
6-mer SELEX enrichment z-score (IMP3 KH1-4): -0.799 | 6-mer SELEX enrichment z-score (IMP3 RRM1-2): 0.417 | 6-mer SELEX enrichment z-score (IMP3 full-length): -0.103 | 6-mer SELEX enrichment z-score (IMP3 KH1-2): -0.593 | 6-mer SELEX enrichment z-score (IMP3 KH3-4): -0.464
